Paper PMC5700166
This is a selection; strong and weak results do not stand in their true shares. The list includes weakly bound sequences.

Tests used:
Test in all cases: protein-binding microarray (PBM)
Conditions in all cases: PBM: ~300 nM protein, 6 mM HEPES pH 7.8, 80 mM KCl, 0.5 mM EDTA, 0.5 mM EGTA, 6% glycerol, 35 ng/ul poly-dIdC, 1% milk, 1 h, room temperature; Ap Aiptasia and Nv Nematostella (sea anemones) / Co Capsaspora / Aq Amphimedon (sponge) / Dm Drosophila / Hu human; RHD is the Rel homology domain; high values mean tight binding; most listed sequences are background and not binding sites; double strand, one strand shown
[1] = molecular target: T1, GST-Ap-NF-kB RHD (UniProt A0A913YAJ5)
T1 sequence: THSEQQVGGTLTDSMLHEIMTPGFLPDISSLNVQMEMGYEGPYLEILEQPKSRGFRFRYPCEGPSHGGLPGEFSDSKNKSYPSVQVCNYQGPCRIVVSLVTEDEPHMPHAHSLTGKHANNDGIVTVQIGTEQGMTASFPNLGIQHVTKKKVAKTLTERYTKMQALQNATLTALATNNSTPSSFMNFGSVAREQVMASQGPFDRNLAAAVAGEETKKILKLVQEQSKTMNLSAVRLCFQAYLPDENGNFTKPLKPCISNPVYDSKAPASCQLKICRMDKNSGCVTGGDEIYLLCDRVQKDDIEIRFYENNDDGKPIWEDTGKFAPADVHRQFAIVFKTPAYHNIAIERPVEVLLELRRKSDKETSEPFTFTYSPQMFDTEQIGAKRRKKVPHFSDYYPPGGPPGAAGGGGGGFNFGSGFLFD

[2] = molecular target: T2, GST-Nv-NF-kB (Cys allele) (UniProt E5G601)
T2 sequence: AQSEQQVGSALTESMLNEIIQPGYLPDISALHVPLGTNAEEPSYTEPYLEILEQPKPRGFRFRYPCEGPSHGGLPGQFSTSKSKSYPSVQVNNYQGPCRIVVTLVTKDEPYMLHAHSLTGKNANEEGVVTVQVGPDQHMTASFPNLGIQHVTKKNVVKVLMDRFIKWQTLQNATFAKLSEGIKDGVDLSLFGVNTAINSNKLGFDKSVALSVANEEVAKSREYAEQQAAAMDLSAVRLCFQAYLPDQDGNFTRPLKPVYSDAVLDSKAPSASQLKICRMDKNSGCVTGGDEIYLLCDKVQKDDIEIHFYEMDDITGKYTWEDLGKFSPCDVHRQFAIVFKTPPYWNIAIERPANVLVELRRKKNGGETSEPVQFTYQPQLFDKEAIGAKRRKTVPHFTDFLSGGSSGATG

[3] = molecular target: T3, GST-Co-NF-kB (UniProt F1ARL5)
T3 sequence: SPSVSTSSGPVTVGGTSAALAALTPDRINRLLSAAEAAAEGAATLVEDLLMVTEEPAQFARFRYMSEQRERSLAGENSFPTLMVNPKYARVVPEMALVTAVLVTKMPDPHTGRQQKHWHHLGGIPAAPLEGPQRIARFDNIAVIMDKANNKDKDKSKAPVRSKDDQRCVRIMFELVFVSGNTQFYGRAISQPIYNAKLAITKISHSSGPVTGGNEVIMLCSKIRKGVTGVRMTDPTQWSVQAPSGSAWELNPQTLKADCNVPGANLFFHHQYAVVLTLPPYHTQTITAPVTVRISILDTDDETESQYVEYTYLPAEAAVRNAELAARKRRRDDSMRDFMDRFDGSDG

[4] = molecular target: T4, GST-Dm-Relish (UniProt Q94527)
T4 sequence: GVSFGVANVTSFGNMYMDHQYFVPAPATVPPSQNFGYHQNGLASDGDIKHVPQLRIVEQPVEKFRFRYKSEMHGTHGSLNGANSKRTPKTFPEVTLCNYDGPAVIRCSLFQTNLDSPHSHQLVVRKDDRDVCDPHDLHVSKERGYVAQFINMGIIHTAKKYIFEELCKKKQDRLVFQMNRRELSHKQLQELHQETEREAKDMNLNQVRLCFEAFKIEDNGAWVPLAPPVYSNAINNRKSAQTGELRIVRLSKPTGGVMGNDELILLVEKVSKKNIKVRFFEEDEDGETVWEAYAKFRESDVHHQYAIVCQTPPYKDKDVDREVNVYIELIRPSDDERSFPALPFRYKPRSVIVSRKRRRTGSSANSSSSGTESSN

[5] = molecular target: T5, GST-Aq-NF-kB (UniProt A9Y5G7)
T5 sequence: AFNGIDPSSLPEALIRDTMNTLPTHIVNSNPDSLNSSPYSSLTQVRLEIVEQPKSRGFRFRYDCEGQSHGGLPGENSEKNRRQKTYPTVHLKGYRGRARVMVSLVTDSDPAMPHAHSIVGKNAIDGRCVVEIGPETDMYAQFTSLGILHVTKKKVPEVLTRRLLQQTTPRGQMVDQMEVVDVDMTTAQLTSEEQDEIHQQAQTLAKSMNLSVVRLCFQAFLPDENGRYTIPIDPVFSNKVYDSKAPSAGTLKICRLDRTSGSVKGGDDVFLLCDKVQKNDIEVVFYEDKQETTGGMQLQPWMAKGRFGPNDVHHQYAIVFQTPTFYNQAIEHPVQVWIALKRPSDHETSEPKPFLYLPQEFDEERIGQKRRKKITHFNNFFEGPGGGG

| Sequence | binding signal [1] [z-score] | binding signal [2] [z-score] | binding signal [3] [z-score] | binding signal [4] [z-score] | binding signal [5] [z-score] |
| --- | --- | --- | --- | --- | --- |
| CCGATTAACATCAGGAAAATGCCTGATGTTAATCGGGTCTTGATTCGCTTGACGCTGCTG | -0.682 | 0.181 | 0.178 | 0.302 | 0.0724 |
| CCGATTAACATCAGTCTTAGTCGTGATGTTAATCGGGTCTTGATTCGCTTGACGCTGCTG | -0.894 | -0.411 | 0.113 | -0.337 | -0.597 |
| CCGATTAACATCAGCGCGGAACCTGATGTTAATCGGGTCTTGATTCGCTTGACGCTGCTG | -0.0723 | -1.36 | -0.572 | -0.546 | -0.515 |
| CCGATTAACATCAAAGCGTACTGTGATGTTAATCGGGTCTTGATTCGCTTGACGCTGCTG | -0.353 | -1.21 | -0.618 | -0.558 | -0.22 |
| CCGATTAACATCAAAAAATCCCCTGATGTTAATCGGGTCTTGATTCGCTTGACGCTGCTG | 11.7 | 11.9 | 6.83 | 10.7 | 9.56 |
| CCGATTAACATCATCGCGCCTTCTGATGTTAATCGGGTCTTGATTCGCTTGACGCTGCTG | 0.764 | -0.974 | -0.835 | -0.267 | -0.449 |
| CCGATTAACATCAACCCTCGAACTGATGTTAATCGGGTCTTGATTCGCTTGACGCTGCTG | 0.133 | -0.317 | 0.378 | -0.399 | -0.179 |
| CCGATTAACATCAGATAGGTACTTGATGTTAATCGGGTCTTGATTCGCTTGACGCTGCTG | 0.759 | 0.404 | -0.643 | 0.686 | 0.294 |
| CCGATTAACATCAATGTGAAATATGATGTTAATCGGGTCTTGATTCGCTTGACGCTGCTG | -0.639 | -0.154 | 0.404 | 0.327 | -0.531 |
| CCGATTAACATCAGGACACTCCATGATGTTAATCGGGTCTTGATTCGCTTGACGCTGCTG | -0.125 | 0.0867 | -0.507 | -0.34 | 0.323 |
| CCGATTAACATCACTCCAGTTACTGATGTTAATCGGGTCTTGATTCGCTTGACGCTGCTG | -0.185 | -0.492 | -0.182 | -0.272 | -0.298 |
| CCGATTAACATCACGACCCGGGCTGATGTTAATCGGGTCTTGATTCGCTTGACGCTGCTG | 0.359 | -0.555 | 0.546 | -0.486 | 0.124 |
| CCGATTAACATCACTGCTGAGACTGATGTTAATCGGGTCTTGATTCGCTTGACGCTGCTG | -0.179 | -0.0966 | 0.188 | -0.724 | -0.516 |
| CCGATTAACATCAGCGATTCCTTTGATGTTAATCGGGTCTTGATTCGCTTGACGCTGCTG | -0.78 | -0.423 | -0.173 | -0.631 | -0.524 |
| CCGATTAACATCAGAGCCGGCTTTGATGTTAATCGGGTCTTGATTCGCTTGACGCTGCTG | 0.0528 | 0.147 | -1.98 | -1.25 | -0.286 |
| CCGATTAACATCACTTGTTGCGTTGATGTTAATCGGGTCTTGATTCGCTTGACGCTGCTG | 0.532 | -0.0963 | 0.942 | 0.014 | -0.228 |
| CCGATTAACATCATTCGGCGAGTTGATGTTAATCGGGTCTTGATTCGCTTGACGCTGCTG | 0.132 | -0.377 | -0.147 | -0.697 | -0.533 |
| CCGATTAACATCAACATGCAGATTGATGTTAATCGGGTCTTGATTCGCTTGACGCTGCTG | -0.699 | 0.452 | 0.0298 | -0.605 | -0.519 |
| CCGATTAACATCAAATGGTAGTCTGATGTTAATCGGGTCTTGATTCGCTTGACGCTGCTG | 0.11 | 0.0106 | -0.157 | -0.103 | -0.4 |
| CCGATTAACATCACTTAATGCTATGATGTTAATCGGGTCTTGATTCGCTTGACGCTGCTG | -0.579 | -0.303 | 0.349 | -0.0254 | -0.533 |
| CCGATTAACATCAAAGAGGTTCCTGATGTTAATCGGGTCTTGATTCGCTTGACGCTGCTG | 0.29 | 0.207 | 0.0737 | -0.163 | -0.358 |
| CCGATTAACATCACTTCTGCTGCTGATGTTAATCGGGTCTTGATTCGCTTGACGCTGCTG | 0.3 | -0.438 | 0.435 | -0.481 | -0.31 |
| CCGATTAACATCACGGTGAACAGTGATGTTAATCGGGTCTTGATTCGCTTGACGCTGCTG | 0.378 | -0.707 | -0.296 | 0.306 | 0.0687 |
| CCGATTAACATCAGTCTACGTGCTGATGTTAATCGGGTCTTGATTCGCTTGACGCTGCTG | -0.665 | -0.764 | -0.69 | -0.937 | -0.492 |
| CCGATTAACATCACATCATTTTGTGATGTTAATCGGGTCTTGATTCGCTTGACGCTGCTG | -1.02 | -0.0887 | -0.407 | 0.925 | -0.38 |
| CCGATTAACATCATTAGTCAACCTGATGTTAATCGGGTCTTGATTCGCTTGACGCTGCTG | -0.786 | -1.3 | -0.516 | -0.659 | -0.386 |
| CCGATTAACATCAACGACCATCTTGATGTTAATCGGGTCTTGATTCGCTTGACGCTGCTG | -0.0485 | -0.58 | -0.512 | -1.14 | -0.615 |
